Results reported in the supplement of paper PMC3334620.
In all, about 33,000 sequences were measured (“E-score (-0.5 to 0.5)”: median about -0.054, highest 2% from about 0.39 on). The list shows a part of the results.

What follows are sequences tested against Ylr278c (UniProt Q05854) (assay: PBM E-score (8-mer binding enrichment) (E-score (-0.5 to 0.5)); higher = stronger / more preferred TF binding; most listed sequences are background and not binding sites). Conditions: protein concentration: 200 nM; construct: GST-DNA-binding domain.
Method: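 Universal 'all 10-mer' protein binding microarrays (Agilent AMADID 015681) probed with GST-tagged S. cerevisiae TFs (full-length or DBD) made by in vitro transcription/translation (PURExpress), about 100-200 nM. Bound TF was detected with fluorescent anti-GST. Each ungapped 8-mer (which stands for itself and its reverse complement) is scored by the PBM enrichment score (E-score), a modified Wilcoxon-Mann-Whitney statistic from -0.5 to +0.5, computed with the Universal PBM Analysis Suite. Scale: above 0.35 generally sequence-specific binding.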

Sequence | PBM E-score
CGGACACC | 0.291
AGCGGAGC | 0.381
GTCCGACA | 0.393
GGGCGTTA | -0.101
TAGTCTGA | -0.354
ATGATTTA | -0.121
ACACCGAC | 0.26
GGCAAATA | 0.194
CATCGGGA | 0.252
CAGGAGGG | -0.289
GTCCCATA | -0.278
CCGCCGCA | 0.266
CTCTCATC | -0.17
CCCGGATA | 0.351
CGTCCACA | -0.0859
CGGATCAA | 0.315
CATAATTA | -0.156
CTCCGAGC | 0.439
AAGATGTA | -0.224
ACGGGTTC | -0.0562
ACCCTAAT | -0.3
GGCTCTAC | 0.0543
TAAGACAA | -0.0566
GCAACCAA | -0.0483
CTTCCCAC | -0.0691

Sequence | PBM E-score
GGAACACC | 0.116
AGAACTAA | 0.0423
ATCGACGG | 0.167
GACCCTCC | 0.127
TCAACGCA | -0.183
GACGGTGA | 0.0974
CGTAGAGC | -0.0798
CCATTCGA | -0.144
CGTTGCCA | -0.0625
GGGCTGAA | -0.0804
ATCGATTC | -0.0981
AGAGATAA | -0.0878
CACACACG | 0.119
ATCGGCTG | 0.131
CGTGGACC | 0.0705
AGTTTTTC | 0.239
AACGCAGA | -0.0288
GTGTCCCA | -0.0522
GGAGGCAA | 0.187
CAGCGAAC | -0.0775
AGGTCGAG | -0.255
GCGCAATA | 0.0889
ATCAGGGG | -0.235
GGCACATA | -0.052
AGAAGGGC | -0.138

Sequence | PBM E-score
CGGGCACG | 0.235
AACCTTCT | -0.0926
GTAATATA | -0.0178
ACGTCGCA | -0.233
ACTGGGCA | -0.177
GTATGCTA | -0.00323
CCGCTAGG | 0.174
CACCACAA | -0.0336
GTAAGAAC | -0.0575
CTCGTAAC | -0.0333
AATTTCAA | -0.104
ACAAACCT | -0.208
CCATCAGG | -0.0717
ATATAAGG | 0.151
TATCACGA | -0.115
GATTTTGC | -0.0482
GCGACACC | 0.019
ACCCCTTC | -0.0977
CATCGCCG | 0.291
CCACCGGC | 0.295
CGTCTTTA | 0.112
CCCTTGCC | -0.208
ATTCTTAA | -0.154
CCGGGAAC | 0.344
CAGCACTC | -0.0477

Sequence | PBM E-score
ATCGGGTC | 0.184
CGTTAGAG | -0.0267
ATGTGGTA | -0.0913
GCGAGAGA | -0.162
ACTGATCT | -0.0821
GAGGACAC | 0.0783
ACCTCCAC | 0.0767
GCTATCCA | 0.0641
GCGGCAAC | 0.0917
ACATGCGA | -0.185
TCGTCAGA | -0.176
AGGATAGG | -0.172
GAGTTATA | -0.056
GGCGAGGA | -0.0257
CCCTTTTA | -0.296
GCCATACC | -0.124
CGGACTAG | 0.325
GACGTGGA | -0.0981
AAGTAGCC | -0.00524
AGAGAGAC | -0.25
GCGAATTA | 0.134
ACAATTGG | -0.269
GAGCTTGC | -0.134
AACATTTC | -0.204
CCGACTCC | 0.369

Sequence | PBM E-score
GGTAATCA | 0.0971
TAAAAGGA | -0.0541
CTTGCGTC | -0.148
AAATCCAT | 0.0574
AGCTACAG | -0.274
ATGTGAAT | 0.00454
AGTTTACA | -0.117
AAAGAAGC | 0.0425
CCTCCTTC | -0.142
CCAAGCGC | 0.06
ACAGCGCA | -0.0624
ATCCGGCG | 0.432
ATACGGAT | 0.256
GGACTGCC | 0.00451
ATTAGCAC | 0.0473
CTACCCCC | 0.0779
GAGCCGCA | 0.0873
CCGACCGA | 0.347
GGACTATA | 0.13
CGAATTGC | 0.156
AGGTACCG | 1e-05
TCGCGGAA | 0.342
GAATCTGC | 0.12
AGAATCCG | 0.297
AATCTTCT | 0.094

Sequence | PBM E-score
TCGGGAGA | 0.0741
CTGTCTTA | -0.0895
AGACACGG | 0.086
ATGCCCCA | -0.0328
CGACTAGC | 0.0696
CAAGGAGG | -0.132
AGCCGAGA | 0.0504
GGCACCCC | -0.0269
CTGTGACA | -0.217
ATAGACGC | 0.13
ATCAGGAA | -0.0943
CCGCTGCA | 0.0719
CTGCGAAG | -0.289
AACAGAGC | -0.159
AACATCTG | -0.262
CAACAACC | -0.0761
CTAAGTTA | -0.242
AAGATCAT | -0.179
CCTCTGAC | -0.0653
CGAGCCAC | -0.115
TCCTCAGA | 0.0167
CGCGCAAG | 0.0504
ACATTTTG | -0.159
CCGAATAA | 0.231
CCACAAAG | -0.0704

Sequence | PBM E-score
ACCCACAT | 0.063
GTACGCTA | -0.111
ACAGAAGA | -0.00191
ACGGTGTG | -0.11
AGGGGATG | -0.112
AAGTAGGC | 0.0727
AGATGCCG | 0.259
ACGATGGA | -0.0215
CGGAACCA | 0.324
CGGCCCAA | 0.163
ATTGATGA | -0.041
GACTAGCC | -0.119
ACCGCGAG | 0.00983
TTAGTAAA | 0.0137
CCCATGCA | -0.195
TCTATAAA | -0.159
CATCTTAC | -0.242
ACAACTAT | -0.0664
AGCATAGG | -0.11
CGGATATC | 0.366
ATAGTCGA | -0.0984
ACACTAGA | -0.061
AGGGCTTC | -0.163
ATCAAGAT | 0.0116
GGCCGATA | 0.3

Sequence | PBM E-score
ACCTATCG | 0.0878
TTCACGAA | -0.187
ATGGCTTA | -0.154
TACTTTAA | -0.122
ACAAGGGG | -0.102
CAGGCCCC | -0.186
CCAATATA | -0.237
CATTCCGG | 0.384
GCCATTAC | -0.0435
GCTATAGC | -0.136
AAGCTAGG | 0.0895
CCCCAGTC | -0.0412
CAGCAATA | -0.141
GCTTGTTA | 0.0864
GCCCTTTA | -0.148
AATAAGCT | -0.0304
ACCACCAT | 0.0454
GATTTAAA | 0.0215
CGTCTTGC | -0.00892
GCCAGCAC | -0.0273
TCCGGAAA | 0.456
CGCACCCG | 0.23
TCGACGAA | -0.0869
GTTAGGAA | 0.0503
ATGCCCGC | 0.275

Sequence | PBM E-score
CACATGAG | -0.342
CAACTACC | 0.0162
CGAGCGCA | 0.0815
TAGACGCA | -0.12
ACTTAAAC | -0.129
AGCGAGGA | -0.0204
CATGAAAG | -0.0739
CATACGGA | 0.37
CCGGGCGC | 0.264
AGGGCAAA | 0.0461
GCGCAAAC | 0.0752
GCTGCAAC | 0.00557
ATGTGTTC | 0.00368
CCGGGCGA | 0.287
ATGACACG | 0.0232
AAACCGAG | 0.0949
AGCGTCGC | 0.037
AGGACGGA | 0.339
GCATAATA | -0.0357
AAGCAGGG | -0.0414
ACAATTTG | -0.21
GGTGGGGA | 0.0745
AAACTGTA | -0.074
AGTGTAAT | -0.104
CACTAAAC | -0.0554

Sequence | PBM E-score
AAACGGCG | 0.165
CTGTCCAC | -0.0489
AAATATAA | 0.144
CCACGAGG | -0.153
ACTACAGC | -0.0825
AACACGCA | -0.0979
CGTCTCCC | 0.225
AGACTTGA | -0.286
GCATGCGC | 0.0729
AGTACAAT | -0.0868
TGTTGGAA | -0.0973
CATGCCCC | 0.109
GGCTCAAC | -0.271
CCGAAATC | 0.385
CGTCTTAC | -0.236
CCCTTACG | -0.192
TGTGCAAA | -0.319
CATATCTA | 0.053
AGCGGGTA | -0.0799
GCAGAGGC | -0.103
AAATAACG | -0.0174
ATCGCCTG | -0.104
CGGGCGAG | 0.229
AGACGCAA | 0.0449
GGGCAGAA | 0.008

Sequence | PBM E-score
CACTTTAG | -0.125
ATTGAGAC | -0.0756
GGATGTAA | 0.0423
GGATTCTA | 0.0814
CTCGTAGC | -0.086
ATCTGTTC | 0.0459
AGCAGATC | -0.151
ATATTTGC | 0.0567
ATCGCAGG | -0.165
GAGCGTGC | 0.159
CCGACCAC | 0.251
CTGAATTA | -0.0803
CTGCTAGC | -0.211
AAATTACT | -0.0481
AGCGCAAT | -0.0236
ACTAGGAC | -0.0916
AACTCTGA | 0.0684
AGATCTTG | -0.225
AACCAGAA | -0.144
GAAAGTGA | -0.0622
CTGCACTA | 0.0495
AGGCATAA | -0.15
CAATATAG | -0.174
CAGAAAGC | -0.0664
AAGTCCGT | 0.433

Sequence | PBM E-score
GGTTTAAA | -0.0177
ACGTCGAA | -0.123
GTGCACAA | -0.0502
ATTGTCTG | -0.0613
ATGGTCGG | 0.196
AGTACCGC | 0.0814
CGTTATGC | -0.186
CTTACTGA | -0.246
ATCTACAC | -0.136
CCCGATAG | 0.19
ACTTTGTA | -0.105
CGGCCTAC | 0.177
CAATTCCA | -0.0617
CCCCTACC | -0.175
ACAAAAAG | 0.0287
GAAGTAGA | -0.0571
ACAAGCAT | -0.0824
ATGCTGAC | -0.351
CGATGCTC | 0.234
TCACTGCA | -0.208
TAAACGGA | 0.297
AGCCACAG | -0.255
CGATACGA | -0.0979
ACTTTTAT | -0.0703
AATAAGAT | -0.103

Sequence | PBM E-score
TGGGTACA | -0.0846
TAGCGTGA | -0.223
ATCATTTG | -0.0126
GGGTAATA | 0.0281
CATTGAAG | -0.185
TTAGCGAA | 0.0152
CGGCTCGC | 0.189
CAGCAAAC | -0.026
CCCTACTA | -0.0452
GATATGTA | 0.0233
CTCCATTA | -0.0529
AGGCAGCA | -0.0855
AAGGTGAT | -0.169
CGTGCCAG | -0.119
AATATAAT | -0.0657
CCGACGAC | 0.235
ACCACAAA | -0.0105
CCTTAGAC | -0.125
ATCGTCCC | -0.0888
AACCTCGC | -0.0783
CCCTCCAG | -0.0892
GACCGAGA | 0.172
AAGCGTCG | -0.00882
GTTGCCGA | 0.252
CCTACGCA | -0.183

Sequence | PBM E-score
CGTCTTCC | 0.00507
GCCATCAA | -0.32
TAACTTGA | -0.237
AGCCTACT | -0.171
AGTCGCTC | -0.139
CAGCATTC | -0.00157
ATCTGAAC | -0.118
ACTTCTGG | -0.257
CGATGCTA | 0.0429
CATGACAC | -0.145
CCAACATA | 0.0416
CAAGTCTG | -0.336
CCCTAAGC | -0.173
CGTGCGCA | -0.0163
CAGGGTGA | -0.195
CGTCTACA | -0.104
AACGGATG | 0.132
GTTCGGTA | 0.189
TGGCCGAA | 0.144
